Source: PubChem BioAssay AID686979 (National Center for Advancing Translational Sciences (NCATS), 2013)
Where “and” joins values, the source holds several entries; their conditions need not be identical. Identical values can stand only once. The campaign covered roughly 420,000 compounds. About 50,000 (12%) were called active. Inconclusive results, whose numbers are uncertain, are shown with a selection of clear calls. The call rests on the fitted dose curve; in most records, active means well fitted inhibition curve with a large enough effect; inconclusive means small, poorly fitted or top-dose-only effect; inactive means flat fitted curve, though single readings scatter. Where the call is inconclusive, the potency comes from a doubtful curve fit.

Experiment: qHTS for Inhibitors of human tyrosyl-DNA phosphodiesterase 1 (TDP1): qHTS in cells in presence of CPT; further: nearly all actives have a fitted effect of over 55% in size
Settings: chicken DT40 Tdp1-/-;hTDP1 cells + 20 nM CPT, ATP luminescence, 48 h; activity change, negative = growth inhibition: at 46.2 µM (top of the series) unless noted
Outline: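 Chicken DT40 Tdp1-/- cells complemented with human TDP1, 400 cells/well, exposed to compounds plus 20 nM camptothecin for at least 48 h at 37 C; viability read as ATP content by CellTiter-Glo luminescence.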
On the % scale 0 is the no-effect control and ±100 the full control effect; potency means the concentration at half of the fitted maximal effect; tags describe the fitted curve by direction and shape.

SMILES | Potency | activity change, negative = growth inhibition
N#CC(=C(O)COC(=O)CCCNC(=O)c1ccc(Cl)cc1)c1nc2ccccc2[nH]1 | inconclusive: 5.17 µM [inhibitor, partial curve] | –
COc1ccc(CN(CCCN)c2ccc(Br)cn2)cc1 | inconclusive: 22.4 µM [inhibitor, single point] | –
C=CCc1c(C)nc(SC)nc1Nc1ccc(C(C)=O)cc1 | active: 16.4 µM | –
COc1ccc(CN([C@H](CO)CC(C)C)S(=O)(=O)N(Cc2ccccc2)[C@H](CO)CC(C)C)cc1 | inconclusive: 35.5 µM [inhibitor, single point] and inconclusive: 14.6 µM [inhibitor, partial curve, poor fit] | –
COc1cc(OC)cc(-c2c(C#Cc3ccsc3)c3cc(-c4cnc(OC)nc4)ccc3n2C)c1 | active: 16.4 µM | –
O=C(c1ccccc1F)n1c2c(c3ccccc31)CCCC2 | active: 23.1 µM | –
Clc1cccc(Cc2c(-c3ccco3)nc3ccc(Br)cn23)c1 | inconclusive: 18.4 µM [inhibitor, single point] | –
COc1cc(C(=O)OC(C)C(=O)Nc2ccc3c(c2)OCCO3)cc(OC)c1OC (stereo unspecified) | inconclusive: 16.4 µM [inhibitor, single point] | –
O=C(/C=C/c1ccc(Cl)cc1)c1ccc([N+](=O)[O-])o1 | active: 1.03 µM | –
O=C(Nc1ccc2c(c1)CCCN2C(=O)c1cccs1)c1ccccc1C(F)(F)F | inconclusive: 29.1 µM [inhibitor, single point] | –
Oc1c(C(c2ccccc2)N2CCc3ccccc3C2)sc2ncnn12 (stereo unspecified) | inconclusive: 18.4 µM [inhibitor, single point] | –
COc1cc2nc(N(CCN(C)C)C(=O)c3ccc(S(=O)(=O)N(C)CC4CCCO4)cc3)sc2cc1OC (stereo unspecified) | – | inactive: -9.18%
Cc1ccccc1NC(=O)CCS(=O)(=O)c1cccc2nonc12 | – | inactive: 14.4%
CCCCCc1cc(=O)oc2c(C(CCN3CCCC3)c3ccc(N(C)C)cc3)c(OC)cc(OC)c12 (stereo unspecified) | active: 14.6 µM | –
Cc1ccc(F)cc1NC(=O)Nc1cc(C(C)(C)C)nn1C | – | inactive: 11.7%
CC(C)C[C@H](NC(=O)c1[nH]cnc1C(=O)N[C@@H](C)C(=O)OCc1ccccc1)C(=O)OCc1ccccc1 | inconclusive: 20.6 µM [inhibitor, single point] | –
NC(=O)c1nsc(C(=O)N(c2cccc(F)c2)C(C(=O)NCC2CCCO2)c2cccs2)c1N (stereo unspecified) | inconclusive: 5.17 µM [inhibitor, single point] | –
N#Cc1ccc(N/N=C/c2cn(-c3ccccc3)nc2-c2ccccc2)c([N+](=O)[O-])c1 | active: 3.66 µM | –
O=c1c2cc(N3CCOCC3)ccc2[nH]c(=S)n1CCc1ccccc1 | inconclusive: 14.6 µM [inhibitor, single point] | –
CS(=O)(=O)Nc1cccc(-c2nccc(NCc3ccccc3)n2)c1 | inconclusive: 29.1 µM [inhibitor, single point] | –
CC(C)=N/N=C1/NC(=O)C(c2ccccc2)S1 (stereo unspecified) | inconclusive: 20.6 µM [inhibitor, single point] | –
COc1ccccc1N1C(=O)C2C3CC(c4ccccc4)C(C3)C2C1=O (stereo unspecified) | inconclusive: 29.1 µM [inhibitor, single point] | –

SMILES | Potency | activity change, negative = growth inhibition
C=CCn1c(COc2ccc(OC)cc2)nc2ccccc21 | inconclusive: 29.1 µM [inhibitor, single point] | –
COc1ccc(-c2coc3c(C(=O)NCCN(C)C)cccc23)c(C)c1 | inconclusive: 25.9 µM [inhibitor, single point] | –
Cc1c(/C=C/C(=O)c2ccccc2)cnn1C | inconclusive: 10 µM [inhibitor, partial curve] | –
CN1CCN(c2ncc3nc(-c4cc(F)cc(F)c4)c(=O)n(C)c3n2)CC1 | – | inactive: 6.69%
CCC1CCCCN1C(=O)CCS(=O)(=O)c1ccc2c(c1)CCN2C(C)=O (stereo unspecified) | inconclusive: 13 µM [inhibitor, partial curve] | –
Cc1ccc(OCCCN(C)C)c(Br)c1 | – | inactive: -24.9%
COc1cccc(NC(=O)CN(C)C(=O)Cc2c(C)nc3ccccc3c2C)c1 | inconclusive: 20.6 µM [inhibitor, single point] | –
O=C(COc1ccccc1)NNc1nc2ccccc2s1 | – | inconclusive: -33.2% [inhibitor]
COc1cc(C(=O)NCCCNc2nc3cc(C)cc(C)c3cc2C#N)cc(OC)c1OC | inconclusive: 32.6 µM [inhibitor, single point] | –
CCCc1cc(=O)[nH]c(SCC(=O)c2c[nH]c3ccccc23)n1 | inconclusive: 23.1 µM [inhibitor, single point] | –
CCc1ccc(Nc2nc(-c3cc4cccc(OC)c4oc3=O)c(CC)s2)cc1 | inconclusive: 29.1 µM [inhibitor, single point] | –
CCOC(=O)C1=C(CSc2nc(CC)c(C)cc2C#N)OC(N)=C(C#N)C1c1ccccc1 (stereo unspecified) | active: 3.26 µM | –
COc1ccc(-c2nc(CN3CCCC(C(=O)NC4CCCC4)C3)c(C)o2)cc1 (stereo unspecified) | inconclusive: 23.1 µM [inhibitor, single point] | –
CC(=O)c1ccccc1NC(=O)COC(=O)CCC1CCCC1 | – | inactive: -1.62%
COc1ccc(-c2nnn(CC(=O)N(CC(=O)NC3CCCC3)c3ccccc3)n2)cc1OC | inconclusive: 29.1 µM [inhibitor, single point] | –
O=C(C[n+]1ccsc1)c1ccccc1 | inconclusive: 0.0092 µM [inhibitor, full curve, poor fit] | –
CC(=O)N1Cc2cc(C(=O)NCc3cccc(F)c3)nc(-c3cccc(C4=CCCC4)c3)c2[C@H]1CCO | active: 18.4 µM | –
COc1cccc(C(O)c2ncc(-c3cccc(C(F)(F)F)c3)[nH]2)c1 (stereo unspecified) | inconclusive: 18.4 µM [inhibitor, single point] | –
CC(C)(C)C1CCc2c(sc3ncn(N)c(=N)c23)C1 (stereo unspecified) | active: 16.4 µM | –
CCn1cc(CN(C)C(=O)/C=C/c2ccc([N+](=O)[O-])cc2)c(C)n1 | inconclusive: 13 µM [inhibitor, partial curve] | –
Cc1ccc(C)c(N2CCN(S(=O)(=O)c3ccc4c(c3)NC(=O)CC(=O)N4)CC2)c1 | inconclusive: 29.1 µM [inhibitor, single point] | –
CCC(=O)N1c2ccc(S(=O)(=O)CCC(=O)NCc3ccc(OC)cc3)cc2CC1C (stereo unspecified) | inconclusive: 18.4 µM [inhibitor, partial curve] | –

SMILES | Potency | activity change, negative = growth inhibition
CN(C)c1ccc(C(=S)NCc2ccco2)cc1 | inconclusive: 20.6 µM [inhibitor, single point] | –
Cc1nc2ccccc2n1/N=C/c1ccc([N+](=O)[O-])o1 | active: 1.84 µM | –
CCOC(=O)C1CCN(C(=O)c2ccc(C)c(NC(=O)c3nsc4ccccc34)c2)CC1 | inconclusive: 23.1 µM [inhibitor, single point] | –
Cc1cc(C)n(C(=O)CNC(=O)c2cccs2)n1 | inconclusive: 13 µM [inhibitor, partial curve] | –
CC(C)C(C(=O)NC1CCCC1)N1CCC(O)(c2ccc(Cl)cc2)CC1 (stereo unspecified) | inconclusive: 0.0164 µM [inhibitor, full curve, poor fit] | –
CCOC(=O)c1ccccc1NC(=O)Cc1ccc(OC)c(S(=O)(=O)N2CCOCC2)c1 | inconclusive: 16.4 µM [inhibitor, single point] | –
Cc1cc(C)c(S(=O)(=O)NCC(c2ccco2)S(=O)(=O)c2ccccc2)c(C)c1 (stereo unspecified) | inconclusive: 29.1 µM [inhibitor, single point] | –
O=S(=O)(Nc1ccc(OC(F)(F)F)cc1)c1ccc(N2CCCCS2(=O)=O)cc1 | active: 20.6 µM | –
CC(C)CNC(=O)CSc1nc(-c2cccs2)cc(C(F)(F)F)n1 | inconclusive: 20.6 µM [inhibitor, single point] | –
CCc1cccc(C)c1Nc1c(-c2cccs2)nc2ncccn12 | inconclusive: 23.1 µM [inhibitor, single point] | –
CCCn1c(SCC(=O)NC23CC4CC(CC(C4)C2)C3)n[nH]c1=O | inconclusive: 16.4 µM [inhibitor, single point] | –
COc1ccc(C/C(N)=N/OC(=O)c2ccco2)cc1OC | inconclusive: 7.31 µM [inhibitor, partial curve] | –
Cc1ccccc1Cn1nnc2c1C(=O)c1ccccc1C2=O | active: 8.2 µM | –
COC(=O)c1cc(NC(=S)NCc2ccc(Cl)cc2)cc(C(=O)OC)c1 | active: 16.4 µM | –
CC1CCN(c2[nH]c(=S)c(C#N)c3c2CCCC3)CC1 | inconclusive: 11.6 µM [inhibitor, partial curve] | –
COc1ccc(CNC(=O)CCS(=O)(=O)c2cc3c(cc2Cl)NC(=O)CO3)cc1 | – | inactive: 6.54%
COc1cccc(CNC(=O)[C@@H]2CCCN2C(=O)[C@H]2CCCCN2S(=O)(=O)c2ccc(OC)c(C)c2)c1 | inconclusive: 29.1 µM [inhibitor, single point] | –
CC(C)c1ccc(N(C(=O)c2ccco2)C(C(=O)NC2CCCC2)c2cccnc2)cc1 (stereo unspecified) | inconclusive: 18.4 µM [inhibitor, single point] | –
O=C(O)c1ccccc1C(=O)c1cccc2c(Br)cccc12 | – | inactive: -11.9%
Cc1cc(C)c(OC2(c3ccccc3)OC(=O)c3ccccc32)c(C)c1 (stereo unspecified) | inconclusive: 25.1 µM [inhibitor, single point] | –
COCCNC(=O)CN(C(=O)CCC(=O)Nc1cc(C)on1)c1ccc(C)cc1C | inconclusive: 4.11 µM [inhibitor, full curve, poor fit] | –
CC(=O)c1cccc(S(=O)(=O)NCCC(=O)Nc2ccc(S(N)(=O)=O)cc2)c1 | – | inactive: 1.7%
